# Assay results reported in the supplement of paper PMC8728848.
# Some of the results follow.
# B1: GS13686A-pdi-553-26-553 (Parabacteroides distasonis) (protein)
# chain: NENPDKPTDDVNYNMNEPRLASTLRGGLIIEGNVEQRLKPLQIDFYSQMTVDGGGWGTKNYIQDDEWNNLVWEEYLKQIASINIVIRSLTEKDKDAYANTIAFARIWRVYVHTLAADKFGPMPFPAYEIVEANPPYKSLKDIYDEYFRELDAAINGFNDSAQPIFSDAGIDLIYKNDVSKWKRFANSLRLRLAVRLTEVDQEKCIAEANAAISSPAGLISDKADNAYMPPKADGSWGQDYNYTMFQITWSGPICMSKSVEKLVTNIGGVAWPQGVVNQTSGVAVSSVHPEKVDPRAPKIFQPGIENGDWKGLVYGPKAEEANTGIYQSKQCAELGFIIKDGYPYKSRPYDLFLSEEVHFLKAELYARGFIAGDAKSEYEAGVRASFATWGVTSEVDDYLTSTEKNEAGTSARYDDQQGAGNTALEKIITQKYIAGIPDLAQEGWNDKRRLNLPRLDVAVYRDQAVYNNNDKDILKSANFIKRMRYPTKESLINATEYEKGKSMLGGKGDIVSTPLWWDKNSNYCTSSK
# What was measured:
# Assay in all cases: glycan array binding signal (z-score within array); higher = stronger binding
# Conditions in all cases: glycan notation: IUPAC condensed, linker removed
# [1] = target: GlcNAc(b1-4)GlcNAc(b1-4)GlcNAc(b1-4)GlcNAc(b1-4)GlcNAc(b1-4)GlcNAc
# Procedure, shortened: (§1)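 Arrays were curated from the Consortium for Functional Glycomics database, 3228 in total, and kept only where the protein sequence was available. Binding is expressed as a within-array Z-score. This score was averaged across arrays of the same protein sequence at different concentrations or buffers and across linkers, and negative values can be read as non-binding.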
# [2] = target: GlcNAc(b1-4)[GlcNAc(b1-6)]GalNAc
# Procedure, shortened: as §1
# [3] = target: GlcNAc(b1-6)Gal(b1-4)GlcNAc
# Procedure, shortened: as §1
# GlcNAc(b1-6)GalNAc = target: GlcNAc(b1-6)GalNAc
# Procedure, shortened: as §1
# [4] = target: GlcNAc6S(b1-3)Gal(b1-4)GlcNAc
# Procedure, shortened: as §1
# Kdn(a2-3)Gal(b1-3)GalNAc = target: Kdn(a2-3)Gal(b1-3)GalNAc
# Procedure, shortened: as §1
# Kdn(a2-3)Gal(b1-3)GlcNAc = target: Kdn(a2-3)Gal(b1-3)GlcNAc
# Procedure, shortened: as §1
# Kdn(a2-3)Gal(b1-4)Glc = target: Kdn(a2-3)Gal(b1-4)Glc
# Procedure, shortened: as §1
# Kdn(a2-3)Gal(b1-4)GlcNAc = target: Kdn(a2-3)Gal(b1-4)GlcNAc
# Procedure, shortened: as §1
# [5] = target: Kdn(a2-3)Gal(b1-4)[Fuc(a1-3)]GlcNAc
# Procedure, shortened: as §1
# Kdn(a2-6)Gal(b1-4)GlcNAc = target: Kdn(a2-6)Gal(b1-4)GlcNAc
# Procedure, shortened: as §1
# [6] = target: Man(a1-2)Man(a1-2)Man(a1-3)Man
# Procedure, shortened: as §1
# [7] = target: Man(a1-2)Man(a1-2)Man(a1-6)[Man(a1-3)]Man
# Procedure, shortened: as §1
# Man(a1-2)Man(a1-3)Man = target: Man(a1-2)Man(a1-3)Man
# Procedure, shortened: as §1
# [8] = target: Man(a1-2)Man(a1-3)[Man(a1-2)Man(a1-6)]Man
# Procedure, shortened: as §1
# [9] = target: Man(a1-2)Man(a1-3)[Man(a1-2)Man(a1-6)]Man(a1-6)[Man(a1-2)Man(a1-2)Man(a1-3)]Man
# Procedure, shortened: as §1
# [10] = target: Man(a1-2)Man(a1-3)[Man(a1-2)Man(a1-6)]Man(a1-6)[Man(a1-2)Man(a1-2)Man(a1-3)]Man(b1-4)GlcNAc(b1-4)GlcNAc
# Procedure, shortened: as §1
# [11] = target: Man(a1-2)Man(a1-3)[Man(a1-6)]Man(a1-6)[Man(a1-2)Man(a1-3)]Man(b1-4)GlcNAc(b1-4)GlcNAc
# Procedure, shortened: as §1
# [12] = target: Man(a1-2)Man(a1-6)[Man(a1-3)]Man(a1-6)[Man(a1-2)Man(a1-2)Man(a1-3)]Man
# Procedure, shortened: as §1
# [13] = target: Man(a1-2)Man(a1-6)[Man(a1-3)]Man(a1-6)[Man(a1-2)Man(a1-2)Man(a1-3)]Man(b1-4)GlcNAc(b1-4)GlcNAc
# Procedure, shortened: as §1
# Man(a1-3)[Man(a1-6)]Man = target: Man(a1-3)[Man(a1-6)]Man
# Procedure, shortened: as §1
# [14] = target: Man(a1-3)[Man(a1-6)]Man(a1-6)[Man(a1-2)Man(a1-3)]Man(b1-4)GlcNAc(b1-4)GlcNAc
# Procedure, shortened: as §1
# [15] = target: Man(a1-3)[Man(a1-6)]Man(a1-6)[Man(a1-3)]Man
# Procedure, shortened: as §1
# [16] = target: Man(a1-3)[Man(a1-6)]Man(a1-6)[Man(a1-3)]Man(b1-4)GlcNAc(b1-4)GlcNAc
# Procedure, shortened: as §1
# [17] = target: Man(a1-3)[Man(a1-6)]Man(b1-4)GlcNAc(b1-4)GlcNAc
# Procedure, shortened: as §1
# [18] = target: Man(a1-3)[Man(a1-6)]Man(b1-4)GlcNAc(b1-4)[Fuc(a1-6)]GlcNAc
# Procedure, shortened: as §1
# Man(a1-6)Man = target: Man(a1-6)Man
# Procedure, shortened: as §1
# Man(b1-4)GlcNAc = target: Man(b1-4)GlcNAc
# Procedure, shortened: as §1
# MurNAc(b1-4)GlcNAc = target: MurNAc(b1-4)GlcNAc
# Procedure, shortened: as §1
# Neu5Ac(a2-3)Gal = target: Neu5Ac(a2-3)Gal
# Procedure, shortened: as §1
# [19] = target: Neu5Ac(a2-3)Gal(b1-3)GalNAc
# Procedure, shortened: as §1
# [20] = target: Neu5Ac(a2-3)Gal(b1-3)GalNAc(b1-3)Gal(a1-4)Gal(b1-4)Glc
# Procedure, shortened: as §1
# [21] = target: Neu5Ac(a2-3)Gal(b1-3)GalNAc(b1-4)[Neu5Ac(a2-3)]Gal(b1-4)Glc
# Procedure, shortened: as §1
# [22] = target: Neu5Ac(a2-3)Gal(b1-3)GalNAc(b1-4)[Neu5Ac(a2-8)Neu5Ac(a2-3)]Gal(b1-4)Glc
# Procedure, shortened: as §1
# [23] = target: Neu5Ac(a2-3)Gal(b1-3)GalNAc6S
# Procedure, shortened: as §1
# [24] = target: Neu5Ac(a2-3)Gal(b1-3)GlcNAc
# Procedure, shortened: as §1
# [25] = target: Neu5Ac(a2-3)Gal(b1-3)GlcNAc(b1-2)Man
# Procedure, shortened: as §1
# [26] = target: Neu5Ac(a2-3)Gal(b1-3)GlcNAc(b1-2)Man(a1-3)[GlcNAc(b1-4)][Neu5Ac(a2-3)Gal(b1-3)GlcNAc(b1-2)Man(a1-6)]Man(b1-4)GlcNAc(b1-4)GlcNAc
# Procedure, shortened: as §1
# [27] = target: Neu5Ac(a2-3)Gal(b1-3)GlcNAc(b1-2)Man(a1-3)[Neu5Ac(a2-3)Gal(b1-3)GlcNAc(b1-2)Man(a1-6)]Man(b1-4)GlcNAc(b1-4)GlcNAc
# Procedure, shortened: as §1
# [28] = target: Neu5Ac(a2-3)Gal(b1-3)GlcNAc(b1-3)Gal(b1-3)GlcNAc
# Procedure, shortened: as §1
# [29] = target: Neu5Ac(a2-3)Gal(b1-3)GlcNAc(b1-3)Gal(b1-4)GlcNAc
# Procedure, shortened: as §1
# [30] = target: Neu5Ac(a2-3)Gal(b1-3)GlcNAc(b1-3)GalNAc
# Procedure, shortened: as §1
# [31] = target: Neu5Ac(a2-3)Gal(b1-3)GlcNAc(b1-4)Gal(b1-4)Glc
# Procedure, shortened: as §1
# [32] = target: Neu5Ac(a2-3)Gal(b1-3)GlcNAc(b1-6)GalNAc
# Procedure, shortened: as §1
# [33] = target: Neu5Ac(a2-3)Gal(b1-3)GlcNAc6S
# Procedure, shortened: as §1
binder,measurement,setting,value
B1,glycan array binding signal (z-score),[1],-0.22
same,glycan array binding signal (z-score),[2],-0.314
same,glycan array binding signal (z-score),[3],-0.023
same,glycan array binding signal (z-score),GlcNAc(b1-6)GalNAc,-0.092
same,glycan array binding signal (z-score),[4],0.299
same,glycan array binding signal (z-score),Kdn(a2-3)Gal(b1-3)GalNAc,0.071
same,glycan array binding signal (z-score),Kdn(a2-3)Gal(b1-3)GlcNAc,-0.375
same,glycan array binding signal (z-score),Kdn(a2-3)Gal(b1-4)Glc,-0.134
same,glycan array binding signal (z-score),Kdn(a2-3)Gal(b1-4)GlcNAc,-0.216
same,glycan array binding signal (z-score),[5],-0.163
same,glycan array binding signal (z-score),Kdn(a2-6)Gal(b1-4)GlcNAc,-0.123
same,glycan array binding signal (z-score),[6],-0.322
same,glycan array binding signal (z-score),[7],-0.073
same,glycan array binding signal (z-score),Man(a1-2)Man(a1-3)Man,-0.226
same,glycan array binding signal (z-score),[8],-0.306
same,glycan array binding signal (z-score),[9],-0.101
same,glycan array binding signal (z-score),[10],-0.198
same,glycan array binding signal (z-score),[11],0.223
same,glycan array binding signal (z-score),[12],-0.039
same,glycan array binding signal (z-score),[13],-0.244
same,glycan array binding signal (z-score),Man(a1-3)[Man(a1-6)]Man,-0.167
same,glycan array binding signal (z-score),[14],0.162
same,glycan array binding signal (z-score),[15],-0.193
same,glycan array binding signal (z-score),[16],0.143
same,glycan array binding signal (z-score),[17],-0.281
same,glycan array binding signal (z-score),[18],0.037
same,glycan array binding signal (z-score),Man(a1-6)Man,0.458
same,glycan array binding signal (z-score),Man(b1-4)GlcNAc,0.156
same,glycan array binding signal (z-score),MurNAc(b1-4)GlcNAc,-0.226
same,glycan array binding signal (z-score),Neu5Ac(a2-3)Gal,-0.326
same,glycan array binding signal (z-score),[19],-0.313
same,glycan array binding signal (z-score),[20],0.055
same,glycan array binding signal (z-score),[21],-0.071
same,glycan array binding signal (z-score),[22],0.189
same,glycan array binding signal (z-score),[23],-0.086
same,glycan array binding signal (z-score),[24],-0.174
same,glycan array binding signal (z-score),[25],-0.219
same,glycan array binding signal (z-score),[26],-0.226
same,glycan array binding signal (z-score),[27],-0.099
same,glycan array binding signal (z-score),[28],-0.316
same,glycan array binding signal (z-score),[29],-0.307
same,glycan array binding signal (z-score),[30],-0.238
same,glycan array binding signal (z-score),[31],-0.483
same,glycan array binding signal (z-score),[32],3.88
same,glycan array binding signal (z-score),[33],0.369
